In the supplement of paper PMC4967469:
The IC50 comes from the fitted curve, where viability falls to half of the control; a fit beyond the top or the lowest dose is shown as a bound at that dose. AUC, from the same fit, is the share of area under the viability curve across the 256-fold dose range; values near 1 show little effect. For some of these results: An inferred top dose was calculated from the reported fits. For some of these results: Where an entry number is given, a second screen of the drug exists; the two often differ.

Tests used:
Test in all cases: Viability of human cancer cell lines after 72 h of drug (GDSC screen)
[1] = compound: C/C=C(/C)C(=O)O[C@H]1C(C)=C2[C@H]([C@@H]1OC(=O)CCCCCCC)[C@@](C)(OC(C)=O)C[C@H](OC(=O)CCC)[C@@]1(O)[C@H]2OC(=O)[C@@]1(C)O [Thapsigargin]; conditions: top dose 0.512 µM; top dose inferred
Method: (§1)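 Human cancer cell lines in 384-well plates, medium with 10% serum, drug for 72 h over a 256-fold dose range (nine 2-fold or five 4-fold steps up to the top dose). Adherent lines were fixed and stained with the nucleic acid dye Syto60, suspension lines read with resazurin; signal relative to control wells, capped at 0 and 100%. One two-parameter sigmoid per drug and line, fitted in a mixed model over all curves with the slope shared within a line.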

[2] = compound: C=CC(=O)Nc1cc(-n2c(=O)ccc3cnc4ccc(-c5cn[nH]c5)cc4c32)ccc1C [QL-X-138]; conditions: top dose 10.24 µM; top dose inferred
Method: as §1

[3] = compound: CCn1c(-c2nonc2N)nc2cnc(Oc3cccc(NC(=O)c4ccc(OCCN5CCOCC5)cc4)c3)cc21 [GSK269962A]; conditions: top dose inferred
Method: as §1

[4] = compound: COc1cc(N2CCC(O)CC2)ccc1Nc1cc(Nc2ccccc2S(=O)(=O)C(C)C)c2cc[nH]c2n1 [MPS-1-IN-1]; conditions: top dose 20 µM; top dose inferred
Method: as §1

[5] = compound: COc1cc(O)c2c(c1)/C=C/C[C@H](O)[C@H](O)C(=O)/C=C\C[C@H](C)OC2=O [(5Z)-7-Oxozeaenol]; conditions: top dose 10 µM; top dose inferred
Method: as §1

[6] = compound: COc1cc2ncnc(-n3nc(-c4ccccn4)nc3N)c2cc1OC [CP466722]; conditions: top dose 16 µM; top dose inferred
Method: as §1

[7] = compound: COc1nc(C)cnc1NS(=O)(=O)c1cccnc1-c1ccc(-c2nnco2)cc1 [Zibotentan]; conditions: top dose 20 µM; top dose inferred
Method: as §1

[8] = compound: C[C@]1(c2nc3c(C(N)=O)cccc3[nH]2)CCCN1 [ABT-888]; conditions: top dose 5 µM; top dose inferred
Method: as §1

[9] = compound: Cc1ccc(-c2c(C(=O)CCl)n(CCCO)c3ncnc(N)c23)cc1 [CMK]; conditions: top dose 4 µM; top dose inferred
Method: as §1

[10] = compound: Cc1ccc(F)c(NC(=O)Nc2ccc(-c3cccc4[nH]nc(N)c34)cc2)c1 [ABT-869]; conditions: top dose 1.024 µM; top dose inferred
Method: as §1

[11] = compound: Cc1cnc(-c2cnc(NCCNc3ccc(C#N)cn3)nc2-c2ccc(Cl)cc2Cl)[nH]1 [CHIR-99021]
Method: as §1

[12] = compound: Nc1ccn([C@@H]2O[C@H](CO)[C@@H](O)[C@@H]2O)c(=O)n1 [Cytarabine]; conditions: top dose 2 µM
Method: as §1

[13] = compound: O=c1cc(-c2cccc3c2Sc2ccccc2S3)oc(N2CCOCC2)c1 [KU-55933]; conditions: top dose 10 µM
Method: as §1

[14] = top dose 2.5 µM, screen: GDSC drug entry 127
[15] = top dose 5 µM, screen: GDSC drug entry 1192
[16] = top dose 2.56 µM, screen: GDSC drug entry 154
[17] = top dose 10 µM, screen: GDSC drug entry 1241, top dose inferred

| Cell Line | AUC [1] | IC50 [1] [µM] | AUC [2] | IC50 [2] [µM] | AUC [3, 14] | IC50 [3, 14] [µM] | AUC [3, 15] | IC50 [3, 15] [µM] | AUC [4] | IC50 [4] [µM] | AUC [5] | IC50 [5] [µM] | AUC [6] | IC50 [6] [µM] | AUC [7] | IC50 [7] [µM] | AUC [8] | IC50 [8] [µM] | AUC [9] | IC50 [9] [µM] | AUC [10] | IC50 [10] [µM] | AUC [11, 16] | IC50 [11, 16] [µM] | AUC [11, 17] | IC50 [11, 17] [µM] | AUC [12] | IC50 [12] [µM] | AUC [13] | IC50 [13] [µM] |
| --- | --- | --- | --- | --- | --- | --- | --- | --- | --- | --- | --- | --- | --- | --- | --- | --- | --- | --- | --- | --- | --- | --- | --- | --- | --- | --- | --- | --- | --- | --- |
| CGTH-W-1 (thyroid, adherent) | 0.127 | 0.00209 | 0.886 | > 10.2 | 0.983 | > 2.5 | 0.969 | > 5 | 0.979 | > 20 | 0.296 | 0.167 | 0.881 | > 16 | 0.984 | > 20 | 0.967 | > 5 | 0.98 | > 4 | 0.846 | 0.743 | 0.918 | > 2.56 | 0.818 | 5.57 | 0.346 | 0.047 | 0.944 | > 10 |
| CL-11 (large intestine, adherent) | 0.973 | > 0.512 | 0.972 | > 10.2 | 0.974 | > 2.5 | 0.978 | > 5 | 0.928 | > 20 | 0.322 | 0.186 | 0.931 | > 16 | 0.986 | > 20 | 0.983 | > 5 | 0.986 | > 4 | 0.987 | > 1.02 | 0.987 | > 2.56 | 0.978 | > 10 | 0.893 | > 2 | 0.923 | > 10 |
| COLO-320-HSR (large intestine, suspension) | 0.544 | 0.0415 | 0.967 | > 10.2 | 0.99 | > 2.5 | 0.982 | > 5 | 0.688 | 3.87 | 0.798 | 4.05 | 0.786 | 5.96 | 0.99 | > 20 | 0.99 | > 5 | 0.829 | 2.05 | 0.99 | > 1.02 | 0.988 | > 2.56 | 0.991 | > 10 | 0.645 | 0.296 | 0.976 | > 10 |
| COLO-668 (small cell lung carcinoma, adherent) | 0.451 | 0.0236 | 0.816 | 5.69 | 0.973 | > 2.5 | 0.957 | > 5 | 0.821 | 11.6 | 0.9 | > 10 | 0.901 | > 16 | 0.972 | > 20 | 0.916 | > 5 | 0.989 | > 4 | 0.98 | > 1.02 | 0.986 | > 2.56 | 0.986 | > 10 | 0.774 | 0.783 | 0.961 | > 10 |
| COLO-684 (endometrium, suspension) | 0.73 | 0.159 | 0.456 | 0.48 | 0.985 | > 2.5 | 0.908 | > 5 | 0.895 | > 20 | 0.744 | 3.45 | 0.744 | 5.51 | 0.969 | > 20 | 0.979 | > 5 | 0.938 | > 4 | 0.963 | > 1.02 | 0.984 | > 2.56 | 0.983 | > 10 | 0.919 | > 2 | 0.959 | > 10 |
| COLO-800 (melanoma, adherent) | 0.168 | 0.00327 | 0.665 | 1.81 | 0.976 | > 2.5 | 0.824 | 2.86 | 0.906 | > 20 | 0.724 | 2.65 | 0.781 | 6.43 | 0.987 | > 20 | 0.963 | > 5 | 0.986 | > 4 | 0.98 | > 1.02 |  |  | 0.986 | > 10 | 0.705 | 0.462 | 0.98 | > 10 |
| COLO-824 (breast, adherent) | 0.634 | 0.0759 | 0.817 | 5.88 | 0.965 | > 2.5 | 0.944 | > 5 | 0.942 | > 20 | 0.856 | 8.33 | 0.898 | > 16 | 0.987 | > 20 | 0.988 | > 5 | 0.968 | > 4 | 0.981 | > 1.02 | 0.965 | > 2.56 | 0.961 | > 10 | 0.966 | > 2 | 0.982 | > 10 |
| COR-L88 (small cell lung carcinoma, adherent) | 0.727 | 0.163 | 0.759 | 4.21 | 0.895 | > 2.5 | 0.926 | > 5 | 0.949 | > 20 | 0.966 | > 10 | 0.949 | > 16 | 0.981 | > 20 | 0.983 | > 5 | 0.883 | > 4 | 0.978 | > 1.02 | 0.986 | > 2.56 | 0.985 | > 10 | 0.956 | > 2 | 0.981 | > 10 |
| COR-L95 (small cell lung carcinoma, adherent) | 0.889 | > 0.512 | 0.5 | 0.638 | 0.981 | > 2.5 | 0.946 | > 5 | 0.897 | > 20 | 0.931 | > 10 | 0.87 | > 16 | 0.981 | > 20 | 0.987 | > 5 | 0.956 | > 4 | 0.975 | > 1.02 | 0.987 | > 2.56 | 0.984 | > 10 | 0.861 | > 2 | 0.987 | > 10 |
